Source: the supplement of paper PMC4967469
A lower IC50 marks a more sensitive line; a fit beyond the top or the lowest dose is shown as a bound at that dose. AUC sums up the same curve from the lowest dose to the 256-fold higher top dose; the more sensitive the line, the further below 1. For part of these data: A top dose marked as inferred is not printed in the source and was worked back from the curve model. For part of these data: An entry number marks a drug with two screens in the source, which often give different values.

Legend:
Test in all cases: Viability of human cancer cell lines after 72 h of drug (GDSC screen)
[1] = compound: Oc1cccc(-c2nc(N3CCOCC3)c3oc4ncccc4c3n2)c1 [PI-103]; settings: top dose 10.24 µM
Procedure: (§1)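 Human cancer cell lines in 384-well plates, medium with 10% serum, drug for 72 h over a 256-fold dose range (nine 2-fold or five 4-fold steps up to the top dose). Adherent lines were fixed and stained with the nucleic acid dye Syto60, suspension lines read with resazurin; signal relative to control wells, capped at 0 and 100%. One two-parameter sigmoid per drug and line, fitted in a mixed model over all curves with the slope shared within a line.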

[2] = compound: CCn1c(-c2nonc2N)nc2c(C#CC(C)(C)O)ncc(OC[C@H]3CCCNC3)c21 [GSK690693]; settings: top dose 10.24 µM; top dose inferred
Procedure: as §1

[3] = compound: Cc1cccc(-c2[nH]c(C(C)(C)C)nc2-c2ccc3c(c2)OCO3)n1 [SB-505124]; settings: top dose 10 µM; top dose inferred
Procedure: as §1

[4] = compound: COc1cc2c(NC3CCN(C(C)C)CC3)nc(C3CCCCC3)nc2cc1OCCCN1CCCC1 [UNC0638]
Procedure: as §1

[5] = compound: CC1=C(/C=C/C(C)=C/C=C/C(C)=C/C(=O)O)C(C)(C)CCC1 [Tretinoin]; settings: top dose 10 µM; top dose inferred
Procedure: as §1

[6] = compound: O=C(NCCCNc1nc(Nc2cccc(NC(=O)N3CCCC3)c2)ncc1I)c1cccs1 [BX-795]; settings: top dose 5 µM; top dose inferred
Procedure: as §1

[7] = top dose 20 µM, screen: GDSC drug entry 1236, top dose inferred
[8] = top dose 40 µM, screen: GDSC drug entry 245

Cell Line | AUC [1] | IC50 [1] | AUC [2] | IC50 [2] | AUC [3] | IC50 [3] | AUC [4, 7] | IC50 [4, 7] | AUC [4, 8] | IC50 [4, 8] | AUC [5] | IC50 [5] | AUC [6] | IC50 [6]
ASH-3 (thyroid, adherent) | 0.861 | 8.63 µM | 0.982 | > 10.2 µM | 0.931 | > 10 µM | 0.977 | > 20 µM | 0.988 | > 40 µM | 0.988 | > 10 µM | 0.897 | > 5 µM
AU565 (breast, adherent) | 0.921 | > 10.2 µM | 0.944 | > 10.2 µM | 0.982 | > 10 µM | 0.84 | 16.2 µM | 0.819 | 26.2 µM | 0.873 | > 10 µM | 0.956 | > 5 µM
AsPC-1 (pancreas, adherent) | 0.948 | > 10.2 µM | 0.947 | > 10.2 µM | 0.843 | > 10 µM | 0.787 | 16.8 µM | 0.814 | > 40 µM | 0.971 | > 10 µM | 0.929 | > 5 µM
BFTC-905 (bladder, adherent) | 0.676 | 1.83 µM | 0.989 | > 10.2 µM | 0.99 | > 10 µM | 0.906 | > 20 µM | 0.936 | > 40 µM | 0.989 | > 10 µM | 0.744 | 1.38 µM
BHT-101 (thyroid, adherent) | 0.872 | > 10.2 µM | 0.984 | > 10.2 µM | 0.957 | > 10 µM | 0.854 | 16.5 µM | 0.878 | > 40 µM | 0.985 | > 10 µM | 0.754 | 1.73 µM
BICR10 (head and neck, adherent) | 0.985 | > 10.2 µM | 0.984 | > 10.2 µM | 0.955 | > 10 µM | 0.971 | > 20 µM | 0.948 | > 40 µM | 0.984 | > 10 µM | 0.874 | > 5 µM
BICR22 (head and neck, adherent) | 0.55 | 0.894 µM | 0.957 | > 10.2 µM | 0.981 | > 10 µM | 0.921 | > 20 µM | 0.982 | > 40 µM | 0.907 | > 10 µM | 0.698 | 1.23 µM
BICR78 (head and neck, adherent) | 0.852 | 9.91 µM | 0.955 | > 10.2 µM | 0.953 | > 10 µM | 0.942 | > 20 µM | 0.956 | > 40 µM | 0.887 | > 10 µM | 0.835 | 4.05 µM
BL-41 (Burkitt lymphoma, suspension) | 0.059 | < 0.04 µM | 0.314 | 0.222 µM | 0.977 | > 10 µM | 0.816 | 7.95 µM | 0.601 | 4.42 µM | 0.994 | > 10 µM | 0.735 | 1.2 µM
